These results are taken from PubChem BioAssay AID463173 (ICCB-Longwood Screening Facility, Harvard Medical School, 2010).

Molecules are shown by their SMILES. The campaign covered roughly 52,000 compounds. About 4,300 (8.3%) were called active. No stated cut-off is given here; in the data, active means survival mostly below about 52% (no sharp cut-off); inactive means mostly above about 56%. The list shows a part of the results.

For this assay, the system named is DeltatarO mutant. In words: S. aureus survival, RN4220 and DeltatarO strains – OD600, teichoic acid synthesis inhibitors, primary screen (AID 463173). To be noted: S. aureus RN4220 wild type/DeltatarO growth, OD600, 18 h, hits give low values, screened at 18.75 µg/mL (by protocol).
As for `COCCNC(=O)c1cc(Sc2ccc(F)cc2F)nc2ccccc12`, the survival is inactive: 92%.
For the compound `COc1cccc(Cn2c(=O)n(-c3ccc(Br)cc3F)c(=O)c3sc4ccccc4c32)c1`, the survival is inactive: 96%.
The result for `CCOc1cccc2cc(-c3nc4sc5c(c4c(=O)[nH]3)CCC(C)C5)c(=O)oc12` (configuration not stated) reads inactive: 103%; that for `CCCCNC(=O)CSc1nc2ccccc2nc1Cc1ccc(Cl)cc1`, inactive: 124%.
Turning to `COc1ccc(NC(=O)CCNS(=O)(=O)c2cccc3nsnc23)cc1OC`, the survival is inactive: 65%.
The result for `COc1ccc(N(Cc2ccccc2)C(=O)c2nc(SC)ncc2Cl)cc1` reads inactive: 99%; that for `Cc1ccc(Cl)cc1N1C(=O)N(Cc2ccc(C#N)cc2)c2ccccc2S1(=O)=O`, inactive: 79%.
The result for `COc1ccc(C2=Nc3ccc(C)cc3NC(c3ccc(Cl)cc3)=N2)cc1` reads inactive: 60%; that for `COc1ccc(Cl)cc1NC(=O)CCCn1c(C)c2cnn(-c3ccccc3)c(=O)c2c1C`, inactive: 67%.
The result for `COc1ccc(CNC(=O)c2cccc(NC(=O)N3CCSc4ncccc43)c2)cc1` reads inactive: 89%.
Regarding `COc1ccc(-c2noc(N3CCC(C(=O)Nc4ccc(C)c(F)c4)CC3)n2)cc1OC`, the survival was inactive: 57%.
The result for `O=C(c1cnn2c(C(F)F)cc(-c3ccccc3)nc12)N1CCc2ccccc21` reads inactive: 78%.
Take `Cc1ccc(OCCn2nnc3sc4c(c3c2=O)CCC(C(C)(C)C)C4)cc1` (configuration not stated): the survival was inactive: 50%.
Take `CCn1c(CN2CCC(C)CC2)nc2cc(NC(=O)COc3ccc([N+](=O)[O-])cc3)ccc21`: the survival was inactive: 82%.
The result for `CC(C)c1ccc(NC(=O)c2cccn2-c2nnc(N3CCCCC3)s2)cc1` reads inactive: 74%; that for `CCCOc1cccc(C(=O)N(Cc2cc(OC)c(OC)c(OC)c2)C2CCS(=O)(=O)C2)c1` (configuration not stated), active: 43%.
The result for `CCN(CC)CCCNC(=O)Cn1c(-c2cccs2)cc2cc(Cl)ccc21` reads inactive: 81%; that for `O=C(CCCCn1c(=O)[nH]c2ccsc2c1=O)N1CCN(c2cccc(Cl)c2)CC1`, inactive: 68%; that for `Cc1ccc(CSc2nc3ccc(NC(=O)COc4ccccc4F)cc3s2)cc1`, inactive: 83%.
For the compound `CCOC(=O)c1c(C)oc2c(Cl)cc(NS(=O)(=O)c3ccc(Cl)c(C)c3)cc12`, the survival is inactive: 104%.
The result for `CCOC(=O)c1c(C)[nH]c(C)c1S(=O)(=O)N(C)CC(=O)N1CCN(c2ccccc2OC)CC1` reads inactive: 119%; that for `CCOC(=O)N1CCN(C(=O)CN(c2ccc(C)cc2C)S(=O)(=O)c2ccccc2)CC1`, inactive: 66%.
As for `O=C(CN1C(=O)C2(SCC(=O)N2c2cccc(Cl)c2)c2ccccc21)NC1CCCCC1` (configuration not stated), the figure is inactive: 86%.
As for `CCN1CCN(C(=O)c2ccc3c(c2)N(Cc2cc(C)ccc2C)C(=O)c2ccccc2S3=O)CC1` (configuration not stated), the figure is inactive: 117%.
For `COC(=O)c1cc(NC(=O)CN(c2ccccc2)S(=O)(=O)N(C)C)ccc1Cl`, the survival was inactive: 83%.
The result for `NS(=O)(=O)c1ccc(CCNc2nc3c(-c4cccc(F)c4)nnn3c3ccc(Cl)cc23)cc1` reads inactive: 65%; that for `CCOc1ccccc1NC(=O)Cn1nnc2sc3c(c2c1=O)CCC(C(C)(C)C)C3` (configuration not stated), inactive: 106%; that for `Cc1oc(-c2ccc(Cl)cc2)nc1Cn1c(=O)cc(-c2ccccc2)c2c(C)nn(C)c21`, inactive: 88%.
As to `Cc1ccc(-n2ncc3c(NCCC4=CCCCC4)ncnc32)cc1C`, the survival was inactive: 119%.
The result for `c1ccc(NCc2cccnc2)cc1` reads inactive: 89%; that for `O=C(CNS(=O)(=O)c1ccc(Br)s1)N1CCN(c2ccccc2F)CC1`, active: 36%; that for `CCOCCN1CCN(c2c3c(nc4cc(-c5cccc(C)c5)nn24)CCC3)CC1`, inactive: 74%.
As for `Cc1nn(CC(=O)N2CCN(c3ccccc3)CC2)c(=O)c2cccn12`, the figure is inactive: 92%; as for `CCc1nn(CC(=O)NCc2cccc(OC)c2)c(=O)c2cc3cc(F)ccc3n12`, inactive: 76%.
The result for `Cc1ccc(-c2nc3c(cnn3-c3ccccc3)c(=O)n2-c2ccc(Cl)cc2)cc1` reads active: 44%.
`O=C(COCc1cc(-c2ccco2)on1)Nc1ccc(OC(F)(F)F)cc1`: the survival was inactive: 92%.
The result for `COc1cccc(OC)c1C(=O)Nc1ccc2c(c1)CCCN2S(=O)(=O)c1ccc(C)cc1` reads inactive: 67%; that for `O=C(Cn1cc(S(=O)(=O)Cc2ccc(F)cc2)c2ccccc21)NCc1ccccc1`, inactive: 78%.
The result for `CCOc1ccccc1NC(=O)CSc1cc(=O)n(CC)c2ccccc12` reads inactive: 72%.
The result for `CCOc1ccc(-c2cc(C(F)(F)F)c(C#N)c(SCC(=O)Nc3ccccc3)n2)cc1` reads inactive: 61%; that for `CC(=O)c1cc(-c2ccccc2)n(CCC(=O)Nc2cc(C)cc(C)c2)c1C`, inactive: 94%.
On to `OC(c1ccc(Br)cc1)C12CN3CN(CN(C3)C1)C2` (configuration not stated), for which the survival was inactive: 91%.
The result for `O=C(O)CCC(=O)Nc1cccc(C(=O)N2CCCCC2)c1` reads inactive: 104%.
As for `COc1ccc(-c2onc(C)c2C)cc1S(=O)(=O)N1CCC(C)CC1`, the figure is inactive: 70%; as for `CCc1ccc(NC(=O)c2ccc(CN3C(=O)C(C)=C(c4ccc(C)cc4)S3(=O)=O)cc2)cc1`, inactive: 75%; as for `COc1cccc(-c2nc(C(N)=O)c3c(n2)n(-c2ccc4c(c2)OCO4)c(=O)n3C)c1OC`, inactive: 80%.
As for `Cn1c(C(=O)NCc2cccc(F)c2)cc2cc(S(=O)(=O)N3CCCCC3)ccc21`, the figure is inactive: 81%; as for `CSc1nc2c([nH]c3ccccc32)c(=O)n1-c1ccc(F)cc1`, inactive: 89%.
For `CCC(C)NC(=O)c1sc2nc(C)c(C(=O)Nc3ccc(Cl)cc3)c(-c3ccc(Br)cc3)c2c1N` (configuration not stated), the survival was inactive: 70%.
For `COc1ccc2cc(CNc3ccc(OC)c(OC)c3)c(=O)n(CC(=O)Nc3ccc(C)cc3)c2c1`, the survival is inactive: 74%.
As for `Cc1cccc(NC(=O)CSc2nc(C)c(Cc3ccccc3)c(=O)[nH]2)c1`, the figure is active: 18%; as for `CSc1nnc(-c2cc3ccccc3cc2O)n1C`, inactive: 90%.
The result for `CCCNC(=O)CN1C(=O)c2cccnc2Sc2ccccc21` reads inactive: 61%; that for `Cc1ccc(C)c(N2CCN(C(=O)c3c4c(nc5ccccc35)C(=O)N(C3CCCCC3)C4)CC2)c1`, inactive: 101%.
As for `COc1ccc(-c2nc(CNS(=O)(=O)c3ccc(F)cc3)cs2)cc1`, the figure is inactive: 118%; as for `CCOc1ccc2[nH]c(=O)c(CN(CCc3ccccc3)C(=O)N(C)C)cc2c1`, inactive: 86%.
Consider `COc1ccccc1CNC(=O)C(=O)NCC(c1ccc2c(c1)OCO2)N1CCOCC1` (configuration not stated), for which the survival was inactive: 102%.
The result for `CCc1ccc(CN2CCc3nc(Nc4ccc5c(c4)OCCO5)ncc3C2)cc1` reads inactive: 97%; that for `COc1cccc(NC(=O)CSc2nncn2N)c1`, inactive: 79%.
For the compound `CC(=O)c1cccc(NC(=O)C2=CC(c3ccco3)=NS(=O)(=O)N2C)c1`, the survival is inactive: 90%.
The result for `COc1ccc(Nc2nnc(-c3ccc(C)c(S(N)(=O)=O)c3)c3ccccc23)cc1` reads inactive: 70%; that for `CC(Sc1ccccc1)C(=O)N/N=C/c1cccnc1` (configuration not stated), inactive: 106%; that for `CCc1ccc2nc(N3CCN(C(=O)c4ccco4)CC3)sc2c1`, inactive: 86%.
As for `COc1ccc(CCNc2oc(COc3ccc(Cl)cc3)nc2C#N)cc1OC`, the figure is inactive: 74%; as for `Cc1ccc(NC(=O)Cn2c(=O)oc3cc(S(=O)(=O)N4CCCC4)ccc32)cc1F`, inactive: 113%; as for `Cc1nc2ccc(S(=O)(=O)CCC(=O)Nc3ccccc3C)cc2s1`, inactive: 50%.
The result for `CCOC(=O)c1ccc(NC(=O)C2CCCN(c3ncnc4onc(C)c34)C2)cc1` (configuration not stated) reads inactive: 67%.
As to `COc1ccccc1N1CCN(CCCNC(=O)Cn2ncc3c([nH]c4ccccc43)c2=O)CC1`, the survival was inactive: 55%.
The result for `O=C(CC1NCCNC1=O)Nc1cccc(F)c1` (configuration not stated) reads inactive: 79%; that for `Cc1ccc2ncc3c(-c4ccccc4)nn(CC(=O)NC4CCCCC4)c3c2c1`, inactive: 115%.
`COc1ccc(NC(=O)CSC2=Nc3ccccc3C3=NC(CCC(=O)NCc4ccco4)C(=O)N23)cc1` (configuration not stated): the survival is inactive: 67%.
The result for `CC1(C)Cc2nc3sc4c(N5CCOCC5)ncnc4c3cc2CO1` reads inactive: 104%; that for `Clc1ccc(CSc2nc(NCCc3ccccc3)c3ccccc3n2)cc1`, inactive: 81%; that for `Cc1cc(NC(=O)C2CCCN(S(=O)(=O)c3cccc4nonc34)C2)ccc1Br` (configuration not stated), inactive: 87%.
As for `COc1ccc(OC)c(CNCc2c(C(=O)O)n(Cc3ccccc3)c3cc(OC)ccc23)c1`, the figure is inactive: 77%; as for `CCC(=O)N1CCc2cc(S(=O)(=O)NC(CC(C)C)C(=O)Nc3ccc(CC)cc3)ccc21` (configuration not stated), active: 60%; as for `O=C(CN1N=C(c2ccc(Cl)cc2)CCC1=O)NCc1ccc(F)cc1`, inactive: 72%.
The result for `CCc1cccc(C)c1NC(=O)c1cnn(-c2ccc(F)cc2)c1-n1cccc1` reads inactive: 49%; that for `CSc1nn(Cc2cccc(F)c2)c(N(C(C)=O)C(C)=O)c1S(=O)(=O)c1ccccc1`, inactive: 84%; that for `O=C(CN1CCCCC1)N1CCCc2ccccc21`, inactive: 110%.
As for `Cc1cccc2sc(N3CCN(C(=O)c4ccco4)CC3)nc12`, the survival is inactive: 96%.
The result for `CCOc1ccc(S(=O)(=O)Nc2ccc(-c3ccc(N4CCCC4)nn3)cc2)cc1` reads inactive: 96%; that for `Cc1cccc(S(=O)(=O)c2cn(Cc3ccccc3)c3cc(N4CCCC(C)C4)c(F)cc3c2=O)c1` (configuration not stated), inactive: 80%; that for `Cc1ccc(CNC(=O)C2CCN(S(=O)(=O)c3ccc4c(c3)oc(=O)n4C)CC2)cc1`, inactive: 107%.
Turning to `CCc1ccc(-n2nc(C)c3c(C)cc(=O)n(CC(=O)Nc4ccc(OC)c(OC)c4)c32)cc1`, the survival is inactive: 84%.
Turning to `CCOC(=O)c1c(C)[nH]c(C)c1S(=O)(=O)N1CCCC(C(=O)N2CCN(c3cc(C)ccc3C)CC2)C1` (configuration not stated), the survival is inactive: 84%.
The result for `Cc1ccc(-c2cc(C(F)(F)F)n3nc(C(=O)Nc4ccc(C#N)cc4)cc3n2)cc1` reads inactive: 81%.
